Data published in PubChem BioAssay AID686979 (National Center for Advancing Translational Sciences (NCATS), 2013).
The whole screen tested about 420,000 compounds, of which about 50,000 (12%) were called active. Inconclusive results, whose numbers are uncertain, are shown with a selection of clear calls. The call rests on the fitted dose curve; in most records, active means well fitted inhibition curve with a large enough effect; inconclusive means small, poorly fitted or top-dose-only effect; inactive means flat fitted curve, though single readings scatter. No potency is given beside an inconclusive call; the fits are too rough. *1 amine or outer side, *2 acyl side, *3 side chain or, on linkers, in order; H or OH if unused. Where a SMILES comes first, the peptide text is derived from it. [ ]: non-standard residue; d: D form. X3 = CC[C@H](C)[C@H](OC(=O)[C@@H](C)[C@@H](CC)N[*:1])C(=O)[*:2]; X1 = CC(N[*:1])C(=O)C(C)(C)C(=O)[*:2]; NMeF = CN[C@@H](Cc1ccccc1)C(=O)O; NMeL = CN[C@@H](CC(C)C)C(=O)O; NMeV = CN[C@H](C(=O)O)C(C)C; NMeA = CN[C@@H](C)C(=O)O

Assay: qHTS for Inhibitors of human tyrosyl-DNA phosphodiesterase 1 (TDP1): qHTS in cells in presence of CPT; further: nearly all actives have a fitted effect of over 55% in size
Settings: chicken DT40 Tdp1-/-;hTDP1 cells + 20 nM CPT, ATP luminescence, 48 h
Method in brief: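 Cell growth measured by CellTiter-Glo luminescence after a minimum 48 h, 37 C compound exposure with 20 nM CPT in Tdp1-knockout DT40 cells stably expressing hTDP1, seeded 400/well; qHTS titration format.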

[1] = activity change, negative = growth inhibition: at 46.2 µM (top of the series) unless noted
On the % scale 0 is the no-effect control and ±100 the full control effect; potency means the concentration at half of the fitted maximal effect; tags describe the fitted curve by direction and shape.

CCCN(C)C1CN(Cc2cn(Cc3ccc(C(F)(F)F)cc3)nn2)S(=O)(=O)C1 (stereo unspecified)
Potency [1]: inconclusive [inhibitor, single point]

COc1ccc(F)cc1S(=O)(=O)n1cc(C)nc1-c1ccccc1
Potency [1]: inconclusive [inhibitor, single point]

COc1ccc(-c2cc(=O)oc3cc(OC(=O)C4CCCCC4)ccc23)cc1
Potency [1]: inconclusive [inhibitor, single point]

COc1cccc(C(=O)Nc2ccc3c(c2)OC[C@H](C)N(C(=O)C2CCCC2)C[C@@H](C)[C@@H](OC)CN(C)C3=O)c1
Potency [1]: inconclusive [inhibitor, single point]

CC1(C)NC(=O)N(CC(=O)NNC(=O)c2ccccc2F)C1=O
Potency [1]: inactive

CCOCCCNC(=O)CSc1nnc(-c2ccc(S(=O)(=O)N3CCCC3)cc2)n1C
Potency [1]: inactive

CCOC(=O)C[C@H]1c2ccccc2S(=O)(=O)N1C1CC1
activity change, negative = growth inhibition [1]: inconclusive: -30.5% [inhibitor]
activity change, negative = growth inhibition (at 46.2 µM (top of the series)): inactive: -5.79%

CC(C)Oc1ccc(S(=O)(=O)N2CCCCC2)cc1NC(=O)C1=COCCO1
Potency [1]: inconclusive [inhibitor, single point]

CC1=C(/C=C/C(C)=C/C=C/C(C)=C\CO)C(C)(C)CCC1
Potency [1]: active: 18.4 µM

CC(=O)N1CCN(CCS(=O)(=O)c2ccc(Br)cc2)CC1
Potency [1]: inactive

N#Cc1c(C(F)(F)F)cc(=O)n2c1[nH]c1ccccc12
Potency [1]: active: 13 µM

CC[C@H](C)[C@@H]1OC(=O)[C@@H](C)[C@@H](CC)NC(=O)[C@H](C)N(C)C(=O)C(C)(C)C(=O)C(C)NC(=O)[C@H](Cc2ccccc2)N(C)C(=O)[C@H](C(C)C)N(C)C(=O)CNC(=O)[C@H](CC(C)C)N(C)C(=O)CNC1=O (stereo partly specified) (cyclo(G[NMeL]G[NMeV][NMeF][X1][NMeA][X3]))
Potency [1]: active: 0.13 µM

Cc1ccc2nc(/C(C#N)=C/c3ccccc3F)[nH]c2c1
Potency [1]: inconclusive [inhibitor, single point]

CC(/C=C/c1ccccc1)=N/NC(=O)CNC(=O)c1ccc2c(c1)OCO2
Potency [1]: inconclusive [inhibitor, single point]

CCCn1c(N)cc(=O)n(C)c1=O
Potency [1]: inactive

CCOCCCNC(=O)CN1CCN(S(=O)(=O)c2ccc3c(c2)CCC3)CC1
Potency [1]: inactive

CCOC(=O)Cn1c(=O)oc2cc(S(=O)(=O)NC3CCCCC3)ccc21
activity change, negative = growth inhibition [1]: inconclusive: -30.3% [inhibitor]

Cc1sc2ncn(CC(=O)N3CCN(c4ccccc4F)CC3)c(=O)c2c1S(=O)(=O)N1CCC(C)CC1
Potency [1]: inconclusive [inhibitor, single point]

CC(=O)NCCNc1nc(-c2cccc(C#N)c2)nc2ccccc12
Potency [1]: inconclusive [inhibitor, single point]

CCCCOc1ccc(C(=O)NCC(=O)OCC(=O)c2c(N)n(C)c(=O)n(C)c2=O)cc1
Potency [1]: inactive

COCCn1c(N)c(C#N)c2nc3ccccc3nc21
Potency [1]: inactive

Cc1cc(NC(=O)CN2C(=O)/C(=C/c3ccc(C(C)C)cc3)SC2=S)no1
Potency [1]: inconclusive [inhibitor, single point]

Cc1ccc(-c2csc(/C=C3\SC(C)C(=O)N3CC(=O)Nc3ccccc3F)n2)cc1 (stereo unspecified)
Potency [1]: inconclusive [inhibitor, single point]

COc1ccc(Cl)cc1-n1cc(-c2ccccc2)nc1SCC(=O)Nc1ccc(C)cc1
Potency [1]: inconclusive [inhibitor, single point]

Cc1ccc([N+](=O)[O-])cc1CN1CCN(c2ncc(Cc3ccccc3)cn2)CC1
Potency [1]: inconclusive [inhibitor, single point]

O=C(COc1ccccc1)NCC(c1ccco1)N1CCCCC1 (stereo unspecified)
Potency [1]: inactive

CCOc1ccc(NC(=O)c2ccc(NS(=O)(=O)c3cccs3)cc2)cc1
Potency [1]: inactive

COc1ccccc1CNC(=O)C1CCN(c2nc3ccc(C)cc3[nH]2)CC1
Potency [1]: inconclusive [inhibitor, partial curve]

Cc1ccc(Oc2nnc(-c3cccs3)c3ccccc23)cc1C
Potency [1]: active: 18.4 µM

COCCn1c(-c2ccc(SC)cc2)nc2c1c(=O)[nH]c(=O)n2CC(C)C
Potency [1]: inactive

CCn1ncc(Br)c1C(=O)Nc1ccn(C23CC4CC(CC(C4)C2)C3)n1
Potency [1]: active: 20.6 µM

CO[C@H]1[C@H](NC(=O)c2ccsc2)c2ccccc2C12CCN(Cc1ccc3c(c1)OCO3)CC2
Potency [1]: inconclusive [inhibitor, single point]

O=c1nc2s/c(=C\c3ccco3)c(=O)n2nc1Cc1ccc(F)cc1
Potency [1]: inconclusive [inhibitor, single point]

O=C(COC(=O)c1ccc2c(c1)OCCO2)Nc1ccc(F)cc1
Potency [1]: inactive

COc1cc(N)c2ncsc2c1
Potency [1]: inactive

CCCNC(=O)Nc1cc(OC)c(OC)cc1Cc1nccc2cc(OC)c(OC)cc12
Potency [1]: inactive

CCOC(=O)c1c(NC(=O)c2ccc(C)cc2)sc2c1CC(C)(C)OC2
Potency [1]: inconclusive [inhibitor, single point]

Cc1ccc(C(=O)NC(C(=O)OCc2cn3cc(Cl)ccc3n2)C(C)C)cc1 (stereo unspecified)
Potency [1]: inconclusive [inhibitor, single point]

S=C(NCCN1CCOCC1)NC1CCCCC1
Potency [1]: inactive

O=C1NC(=Nc2ccccc2Cl)S/C1=C\c1cccc([N+](=O)[O-])c1
Potency [1]: inconclusive [inhibitor, single point]

CNC(=O)C1CC(=O)N(c2ccc(OCC(=O)Nc3ccccc3)cc2)C1 (stereo unspecified)
Potency [1]: inactive

COc1cccc(Nc2nc3ccccc3n3nnnc23)c1
activity change, negative = growth inhibition [1]: inconclusive: -32.1% [inhibitor]

CCCN(CC(=O)Nc1ccccc1OC)C(=O)c1ccc(=O)[nH]c1
Potency [1]: inconclusive [inhibitor, full curve, poor fit]

CCCCc1cc(=O)oc2cc(C)cc(O)c12
Potency [1]: inconclusive [inhibitor, single point]

CCOC(=O)C(CC(=O)O)=C(c1ccccc1)c1ccccc1
Potency [1]: inactive
